Test results from PubChem BioAssay AID686979 (National Center for Advancing Translational Sciences (NCATS), 2013).
About 50,000 (12%) of roughly 420,000 compounds were called active. This list was built around the results that the source calls inconclusive (neither active nor inactive); the mix of calls is not that of the screen. Calls come from the whole dose curve; as a rule, active = well fitted inhibition curve with a large enough effect; inconclusive = small, poorly fitted or top-dose-only effect; inactive = flat fitted curve, though single readings scatter. Potencies of inconclusive entries are left out as doubtful fits.

Test: qHTS for Inhibitors of human tyrosyl-DNA phosphodiesterase 1 (TDP1): qHTS in cells in presence of CPT; note: nearly all actives have a fitted effect of over 55% in size
Conditions: chicken DT40 Tdp1-/-;hTDP1 cells + 20 nM CPT, ATP luminescence, 48 h; activity change, negative = growth inhibition: at 46.2 µM (top of the series)
Method in brief: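 Chicken DT40 Tdp1-/- cells stably complemented with human TDP1 were seeded at 400 cells/well in medium containing 20 nM camptothecin, exposed to pin-transferred compounds, and grown at 37 °C for at least 48 hr. Viability was read as ATP luminescence.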
% is set by controls: 0 for no effect and ±100 for the full control effect; potency is the fitted concentration of half-maximal effect; tags give direction and shape of the fitted curve.

| Compound | Potency | activity change, negative = growth inhibition |
| --- | --- | --- |
| Cc1ccc(S(=O)(=O)N2C[C@@H](C)[C@]3(C2)[C@H](O)[C@H](OC(=O)NC2CC2)C[C@H]2C(=O)N(c4ccccc4)C(=O)[C@H]23)cc1 | inconclusive [inhibitor, single point] |  |
| Cc1nc(C)c(-c2ccc(SCC(=O)Nc3ccccc3)nn2)s1 | active: 23.1 µM |  |
| CC1(C)OC(=O)N(c2ccccc2)C12C=Cc1c(ccc3ccccc13)O2 (stereo not given) | inconclusive [inhibitor, single point] |  |
| CN(C)CCNC(=O)c1sc2nc(-c3ccccc3)cc(C(F)(F)F)c2c1N | inconclusive [inhibitor, single point] |  |
| Cc1ccc(NC(=O)C2CCN(S(=O)(=O)c3cccnc3)CC2)cc1C | inconclusive [inhibitor, single point] |  |
| CCCCNC(=O)c1ccc2c(SCC(=O)O)c3c(nc2c1)CCCC3 |  | inactive: -6.4% |
| CC1(C(=O)Nc2ccc3c(c2)OCCO3)CSCC(=O)N1CCOc1ccccc1 (stereo not given) |  | inactive: -24.3% |
| CCN(C(=O)COc1cc(=O)n(CC)c2ccccc12)c1cc(Cl)ccc1OC | inconclusive [inhibitor, single point] |  |
| CCOC(=O)N1CCN(CC(O)COC2CC(C)CCC2C(C)C)CC1 (stereo not given) | inconclusive [inhibitor, partial curve, poor fit] |  |
| Cn1cccc1C(=O)C(=O)Nc1cc(Cl)cc(Cl)c1 | active: 16.4 µM |  |
| CC1CCCC(C)N1C(=O)COC(=O)CSc1ccc([N+](=O)[O-])cc1 (stereo not given) | inconclusive [inhibitor, single point] |  |
| COc1ccc(CC(=O)Nc2nc3c(s2)CC(C)CC3)cc1 (stereo not given) | inconclusive [inhibitor, single point] |  |
| O=C(NCC1CCCN(Cc2cccc(C(F)(F)F)c2)C1)c1ccc(F)cc1 (stereo not given) |  | inactive: -26.6% |
| O=C(N/N=C/c1cccc(O)c1)c1ccc(COc2cccc3cccnc23)cc1 |  | inactive: -29.9% |
| C=CCSc1nc2ccccc2n1C(=O)/C=C/c1cc(OC)c(OC)c(OC)c1 | active: 2.31 µM |  |
| CCN1CCN(c2ccc(S(=O)(=O)N3CCOCC3)cc2NC(=O)CC(NC(C)=O)c2ccccc2)CC1 (stereo not given) |  | inactive: -13.3% |
| COC(=O)C1CCN(C2CN(C3CCCCC3)S(=O)(=O)C2)CC1 (stereo not given) |  | inactive: 0.944% |
| O=C(NC1CCCCC1)N1CCCC(c2nc(-c3cccs3)no2)C1 (stereo not given) | inconclusive [inhibitor, single point] |  |
| Cc1ccc(NC2=NCC(=O)N2Cc2ccc3c(c2)OCO3)c(C)c1 | inconclusive [inhibitor, single point] |  |
| CCC(c1nnnn1-c1ccc2c(c1)OCCO2)N1CCN(c2cc(C)ccc2C)CC1 (stereo not given) | inconclusive [inhibitor, single point] |  |
| Cc1ccc(C2=CC(=O)C[C@H](c3ccc(F)cc3)C2)cc1 | inconclusive [inhibitor, single point] |  |
| O=C1CC(c2ccccc2)Oc2ccc(Cl)cc21 (stereo not given) | inconclusive [inhibitor, single point] |  |
| COCc1c(C(=O)N(C)Cc2ccccc2N2CCCC2)oc2ccccc12 | inconclusive [inhibitor, single point] |  |
| CCC(=O)N1CCCc2cc(S(=O)(=O)N3CCN(C4CCCCC4)CC3)ccc21 | inconclusive [inhibitor, single point] |  |

| Compound | Potency | activity change, negative = growth inhibition |
| --- | --- | --- |
| Nc1nc2ccccc2cc1C(=O)NCCCCc1ccccc1 | active: 2.06 µM |  |
| C[C@]12CC[C@H](O)CC1=CCC1C2CC[C@@]2(C)C1CC[C@@H]2NC(=O)[C@@H](N)CO (stereo not given in full) |  | inactive: -10.3% |
| O=C(c1ccc(Cl)cc1)[C@@H]1[C@@H]2C(=O)N(c3cccc4ccccc34)C(=O)[C@@H]2C2c3ccccc3C=NN21 (stereo not given in full) | inconclusive [inhibitor, single point] |  |
| O=C(NCCc1ccc(F)cc1)c1ccc(Cl)c(S(=O)(=O)N2CCOCC2)c1 | inconclusive [inhibitor, single point] |  |
| CSc1ccc(NC(=O)NN(c2ccccc2)C2CCS(=O)(=O)C2)cc1 (stereo not given) |  | inactive: 1.64% |
| CN(CC(=O)N1CCN(c2cccc(Cl)c2)CC1)S(=O)(=O)c1cccs1 | inconclusive [inhibitor, single point] |  |
| CC1CN(C(=O)N2CCC(C(=O)NCCCc3ccccc3)CC2)c2cc(Cl)ccc2O1 (stereo not given) | active: 18.4 µM |  |
| C=CCNC(=S)N/N=C/c1ccc(C(F)(F)F)cc1 | inconclusive [inhibitor, single point] |  |
| O=C(Nc1ccc2c(c1)CCC2)c1cc(=O)[nH]c2ccccc12 |  | inactive: -13% |
| CN1C(=O)[C@H]2[C@@H](/C=C/c3ccccc3)N3C(=O)CN(Cc4ccc(-c5ccccc5)cc4)C(=O)[C@@]3(Cc3ccccc3)[C@H]2C1=O | inconclusive [inhibitor, single point] |  |
| c1ccc(-c2csc3ncnc(NCCCN4CCOCC4)c23)cc1 | active: 11.6 µM |  |
| Cc1nnc(NC2(C(F)(F)F)C(=O)Nc3c2c(=O)n(C)c(=O)n3C)s1 (stereo not given) |  | inactive: -0.87% |
| CCOc1ccccc1Nc1ncnc2c1cnn2-c1ccc(C)cc1 | inconclusive [inhibitor, single point] |  |
| COc1cccc(NC(=O)CCCOc2cc(=O)n(C)c3ccccc23)c1 | inconclusive [inhibitor, single point] |  |
| COc1ccc(CN(C(=O)CN2C(=O)NC3(CCC(C)CC3)C2=O)C(C)Cc2cccs2)cc1 (stereo not given) | inconclusive [inhibitor, single point] |  |
| COc1cc(-c2cc(C(=O)Nc3cccc(S(=O)(=O)N(C)C)c3)c3ccccc3n2)cc(OC)c1OC |  | inactive: -2.34% |
| Cc1nnc(Sc2cc(C(=O)NCCCN(C)Cc3ccccc3)c3ccccc3n2)s1 | inconclusive [inhibitor, single point] |  |
| COc1cc(NC(=O)c2ccc(C)c(Cl)c2)ccc1NC(=O)c1cc2ccccc2o1 | inconclusive [inhibitor, partial curve] |  |
| Cc1ccc(S(=O)(=O)N2CCN(Cc3cc(C(C)C)ccc3O)CC2)cc1 |  | inconclusive: -30.8% [inhibitor] |
| O=C(NCCOc1ccccc1F)c1ccc2c(=O)n3c(nc2c1)CCC3 |  | inconclusive: -30.5% [inhibitor] |
| COc1ccc(N2C(=O)CSC2c2cccs2)cc1 (stereo not given) |  | inactive: -16.2% |
| O=C(O)COc1ccc(NC(=O)c2ccc3c(c2)C(=O)N(C2CCCCC2)C3=O)cc1 |  | inactive: 9.44% |
| CCCn1cc(S(=O)(=O)c2ccc(C)cc2)c(=O)c2cc(F)c(N3CCCC3)cc21 | inconclusive [inhibitor, partial curve] |  |
| CCN(CCNC(=O)C1CCC(=O)N1Cc1ccc(C)cc1)c1ccccc1 (stereo not given) |  | inactive: -19.2% |

| Compound | Potency | activity change, negative = growth inhibition |
| --- | --- | --- |
| NC(=S)Nc1nccc(-c2cccs2)n1 |  | inactive: 0.163% |
| Cc1cccc(NC(=O)CN2C(=O)N/C(=C/c3cc(C)n(C(C)C)c3C)C2=O)c1 | inconclusive [inhibitor, single point] |  |
| CCOC(=O)c1c(N)sc(C(=O)Nc2ccccc2)c1C | inconclusive [inhibitor, single point] |  |
| Cn1cc(-c2coc3c(C(=O)NCc4cccs4)cccc23)cn1 | inconclusive [inhibitor, single point] |  |
| COc1ccccc1Nc1nc(-c2c(C)[nH]c3ccccc23)cs1 |  | inconclusive: -30% [inhibitor] |
| C=CCn1c(=NC(=O)CN2C(=O)CCC2=O)sc2cccc(OC)c21 | inconclusive [inhibitor, single point] |  |
| Cc1ccc(CNC(=O)CSc2ncc3c(n2)-c2cc(Cl)ccc2N(C)S3(=O)=O)cc1 | inconclusive [inhibitor, single point] |  |
| O=C(CCl)c1ccc2c(c1)CCN2C(=O)C1CCCCC1 | active: 1.3 µM |  |
| CCCCOc1ccc(CNC(=O)c2cccc(NC(=O)N3CCSc4ncccc43)c2)cc1 | inconclusive [inhibitor, single point] |  |
| CCCCNC(=O)CC1C(=O)N(Cc2ccccc2)C(C)c2nc3ccccc3n21 (stereo not given) | inconclusive [inhibitor, single point] |  |
| O=C(NCc1ccccc1)Nc1cccc2ccccc12 |  | inactive: -0.576% |
| Cc1c(C(=O)NCc2ccc(Cl)cc2)oc2ccc3c(c12)C(=O)CC(C)(C)O3 | inconclusive [inhibitor, single point] |  |
| O=C(CCl)Nc1cn(-c2ccccc2)nc1-c1ccccc1 | active: 2.91 µM |  |
| COc1cc(O)c(C(CC(=O)N2CCN(c3ccccc3)CC2)c2ccc3c(c2)OCO3)c(OC)c1 (stereo not given) | inconclusive [inhibitor, single point] |  |
| CCN1CCN(c2ncnc3c2cnn3-c2ccc(C)cc2C)CC1 |  | inconclusive: -33.4% [inhibitor] |
| O=C(O)/C=C\C(=O)Nc1ccccc1C(=O)NC1CCCCC1 |  | inactive: -3.93% |
| CCN(CC(=O)NCc1cccs1)C(=O)/C=C/c1ccc(OC)c(OC)c1 |  | inactive: -18.6% |
| O=C/C=C/c1coc2ccc3ccccc3c2c1=O | inconclusive [inhibitor, single point] |  |
| Cc1noc(C)c1-c1cc(NCc2cccnc2)ncn1 |  | inactive: -6.05% |
| Cc1ccc(CNC(=O)c2ccc([N+](=O)[O-])o2)cc1 | active: 16.4 µM |  |
| CCCCN(C)c1c(C)nc2ccc(C(=O)NCc3cccs3)cn12 | inconclusive [inhibitor, single point] |  |
| COc1cc(C(=O)N2CCCCC2c2cc(C(=O)Nc3ccccc3Cl)no2)cc(OC)c1C (stereo not given) | inconclusive [inhibitor, single point] |  |
